Assay results as given in the supplement of paper PMC3334620.
Whole data set: some 33,000 sequences, median “E-score (-0.5 to 0.5)” near -0.041, cut for the highest 2% near 0.37. The list shows a part of the results.

Target: T1, Ecm22 (UniProt Q05958)
T1 sequence: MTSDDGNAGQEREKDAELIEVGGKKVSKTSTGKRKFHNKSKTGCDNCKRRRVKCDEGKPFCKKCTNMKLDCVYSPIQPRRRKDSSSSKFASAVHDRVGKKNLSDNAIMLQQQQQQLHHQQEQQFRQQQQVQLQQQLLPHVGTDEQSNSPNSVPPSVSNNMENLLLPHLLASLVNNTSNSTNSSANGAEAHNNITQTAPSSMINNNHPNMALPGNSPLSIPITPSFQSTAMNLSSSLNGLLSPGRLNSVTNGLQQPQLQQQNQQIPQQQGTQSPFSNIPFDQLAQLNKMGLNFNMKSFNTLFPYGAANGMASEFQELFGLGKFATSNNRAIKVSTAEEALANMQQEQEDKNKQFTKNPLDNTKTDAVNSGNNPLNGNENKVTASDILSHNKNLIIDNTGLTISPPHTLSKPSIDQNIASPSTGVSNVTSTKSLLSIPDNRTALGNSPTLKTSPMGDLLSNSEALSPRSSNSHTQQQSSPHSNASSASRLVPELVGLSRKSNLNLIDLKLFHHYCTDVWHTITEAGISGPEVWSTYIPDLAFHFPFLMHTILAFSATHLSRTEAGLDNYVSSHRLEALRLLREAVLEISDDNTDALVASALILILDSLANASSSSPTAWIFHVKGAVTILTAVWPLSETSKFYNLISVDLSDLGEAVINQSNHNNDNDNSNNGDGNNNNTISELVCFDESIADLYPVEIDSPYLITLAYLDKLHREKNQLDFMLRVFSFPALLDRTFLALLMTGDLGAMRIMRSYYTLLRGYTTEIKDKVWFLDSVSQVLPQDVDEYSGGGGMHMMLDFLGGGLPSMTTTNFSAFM
Assay: PBM E-score (8-mer binding enrichment) (E-score (-0.5 to 0.5)); higher = stronger / more preferred TF binding; most listed sequences are background and not binding sites
Conditions: protein concentration: 200 nM; construct: GST-full length
Procedure, shortened: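 Bound GST-tagged yeast transcription factors, applied at about 100-200 nM to double-stranded universal all-10-mer Agilent arrays, were detected with fluorescent anti-GST. Scans were normalised with masliner. A modified Wilcoxon-Mann-Whitney statistic, the E-score, was assigned to each ungapped eight-base word pooled with its reverse complement by the Universal PBM Analysis Suite.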

Row | Sequence | PBM E-score
1 | ATTCTCTG | -0.141
2 | GAGCTATA | -0.11
3 | CGCCTCCG | -0.124
4 | AGTTATCA | -0.0889
5 | AGAACTAT | 0.109
6 | ACCCGAGC | 0.284
7 | TGTATCAA | -0.0485
8 | GCCGCTGA | -0.11
9 | AATGCTGA | -0.208
10 | GACCCTCA | -0.297
11 | GTATAAGA | 0.311
12 | CGAAGTCC | 0.0262
13 | ATATACGC | 0.299
14 | TGCCCGCA | 0.052
15 | AGCTTACG | 0.248
16 | CCCACCTC | -0.0565
17 | GAGACAGC | -0.104
18 | CCAAGTCG | 0.12
19 | GCAGATAA | -0.0358
20 | AATTATGA | 0.0174
21 | CGAACTGA | 0.0518
22 | CGCCACTA | -0.208
23 | CGGAGACG | 0.174
24 | GAACTCCA | -0.195
25 | TCCACAGA | -0.222

Row | Sequence | PBM E-score
26 | CGCCTAAG | -0.024
27 | ATCGTGCG | 0.228
28 | AAACGCGC | 0.0568
29 | CGTGTGCA | -0.0516
30 | CAAGTGGG | -0.159
31 | CACCCGTC | -0.192
32 | CAACGGCC | -0.0502
33 | ACTCACTG | -0.267
34 | AAGTGTAA | -0.116
35 | AACAACAA | 0.0166
36 | AGCCATTG | -0.11
37 | AAAGTCAT | -0.118
38 | GAGCGGAA | 0.156
39 | AATGTGAC | -0.175
40 | AGATCCAC | -0.221
41 | AGGACTAA | -0.214
42 | CACGAGGG | 0.189
43 | ACAGGTAG | -0.0884
44 | AGCAAGGA | -0.0928
45 | ATCAGACG | 0.0743
46 | ACTGCGGG | -0.211
47 | AGAATAGC | -0.137
48 | TGGAGCAA | -0.0481
49 | AGTCGTAC | 0.46
50 | ATCCTCGG | 0.212

Row | Sequence | PBM E-score
51 | ACGAGGGG | 0.365
52 | GCGTTGAC | -0.107
53 | CCCAATAA | -0.161
54 | TACTGCTA | -0.0618
55 | AAACACAT | 0.0238
56 | ATCTGCTC | -0.124
57 | AGGGCCCT | -0.121
58 | GCAGGTTA | -0.00079
59 | AAATGACT | -0.344
60 | GAGGCAAC | -0.128
61 | TCCACCGA | -0.127
62 | CGCTGCTA | 0.033
63 | AAGGGATG | -0.124
64 | ACGTCCAA | -0.0607
65 | GTTGGTAA | 0.196
66 | CGTGGAGA | -0.141
67 | GGCTTAAC | 0.126
68 | ACGATTCG | 0.35
69 | ATGAGCGG | -0.0285
70 | CCCAGGTA | -0.168
71 | CAATGGGC | -0.209
72 | CCCCTCGA | 0.026
73 | GCTTATAC | 0.277
74 | TCTGGAAA | -0.0896
75 | AGAGAGTA | -0.0862

Row | Sequence | PBM E-score
76 | AGTGCCTC | -0.0589
77 | CGCGATAG | 0.135
78 | GAGAACTC | -0.0846
79 | AAACGCAC | 0.219
80 | ATCGTACG | 0.437
81 | AACAGCCC | -0.179
82 | CCGACTAA | 0.0673
83 | TCTCGTCA | 0.0737
84 | ATCTATGC | 0.0159
85 | GATCTCAC | -0.227
86 | GACACTAA | 0.0931
87 | AAGATCAA | -0.0315
88 | AATAGCCA | -0.0579
89 | AATTAATC | 0.105
90 | GTTGCAAA | 0.131
91 | CTCCGCGC | -0.0267
92 | AGGGTCTC | -0.259
93 | CTGCATGC | 0.0116
94 | TTACCTAA | 0.0108
95 | GAATATTA | 0.0848
96 | GGGCGTAC | 0.214
97 | CTGCGGTA | 0.0627
98 | ACCATTTA | 0.0636
99 | CCAATGCG | -0.082
100 | GTTGAAGA | -0.00558

Row | Sequence | PBM E-score
101 | GACCAAGA | -0.054
102 | CAGACGTA | 0.0611
103 | CAGGGATA | -0.137
104 | TTCACAAA | -0.108
105 | AAACCGCC | -0.0833
106 | CCCAGCTA | -0.152
107 | GCTCATCC | 0.0839
108 | CGCACGTA | 0.168
109 | ACGCCCCC | -0.113
110 | GAGATTGA | -0.126
111 | ACCTGGAA | -0.0824
112 | ATGCCGCA | -0.0303
113 | CATTCCCA | -0.146
114 | AGACGACA | 0.0702
115 | ACCATAAG | -0.247
116 | ATATCTGA | -0.084
117 | CCACCCCG | -0.0383
118 | CCTCAAAC | 0.159
119 | ACTCTTCT | -0.0892
120 | GAAGAGGA | -0.175
121 | CTAGCTCC | -0.0403
122 | AGGTCCGA | 0.197
123 | ATTCTAAG | 0.0558
124 | AATGTCTC | -0.115
125 | AACAATGA | -0.00952

Row | Sequence | PBM E-score
126 | CCCTCCCC | -0.0555
127 | TCATTGCA | -0.0625
128 | AGAGTAAT | -0.0617
129 | TCTCAACA | -0.114
130 | GAACTCGC | 0.218
131 | CCCGCGCC | -0.046
132 | AGTAGCCG | -0.11
133 | ACTTCCAG | -0.223
134 | AGAACGTA | 0.178
135 | AATTAGCG | 0.104
136 | CGCCCAAC | -0.0505
137 | CAATGCGA | 0.0981
138 | ACCGCTGG | -0.164
139 | AGGGACAG | -0.161
140 | GGACCAGA | -0.184
141 | GGTCTAAA | -0.0254
142 | CTCCACCA | -0.165
143 | ACATACGG | 0.321
144 | TAAGACCA | -0.199
145 | CGAGCTGC | 0.214
146 | ACTTTCTA | -0.153
147 | GAAACAAC | 0.095
148 | TACAGGGA | -0.136
149 | AAGCGACC | 0.278
150 | CGTCGGAC | 0.101

Row | Sequence | PBM E-score
151 | AACGACCA | 0.424
152 | AGAACTGG | -0.117
153 | GGGGGCTA | -0.173
154 | ATGCTTCA | -0.257
155 | GGAGGACA | -0.0806
156 | AATACTGA | -0.00735
157 | AATGGCAT | 0.113
158 | AAAGGTGC | -0.112
159 | GGGACTAA | -0.202
160 | AGCTGCTC | -0.218
161 | AAGTCCAA | -0.206
162 | ATCGTACC | 0.479
163 | CAGCTTAC | 0.00572
164 | AATTTCCA | -0.0624
165 | CACGCAAA | -0.049
166 | GGTAGGCA | -0.344
167 | AAAAGGGC | -0.214
168 | AGGTAGAA | -0.0905
169 | CGAGTTGA | 0.184
170 | GCGCATCA | -0.229
171 | GCACGGAA | -0.094
172 | CACTGTCC | 0.0229
173 | CTCTCCGC | -0.147
174 | CATTTGAA | -0.126
175 | AACTGATA | 0.131

Row | Sequence | PBM E-score
176 | CTGCAACC | -0.218
177 | GTACTTTA | 0.211
178 | CCCAGCCG | -0.135
179 | AATAGATG | 0.197
180 | GTTAGTTA | 0.191
181 | CGTGCTGC | -0.115
182 | ACACTCGA | 0.0864
183 | GCCGAGCC | -0.0669
184 | CTACCCGA | 0.183
185 | ATGACCGA | 0.169
186 | AGAGGCGG | -0.109
187 | CGGGCACC | -0.0935
188 | AAACTCTG | -0.1
189 | GGTACCAA | 0.0788
190 | ATTTTCTA | -0.0481
191 | AAAAGTTC | -0.0456
192 | TAGTGAAA | -0.182
193 | CCCTAGGC | -0.279
194 | GGACCTTA | -0.0892
195 | CGTACTAG | 0.342
196 | AGGGTCGG | 0.0967
197 | AGAGCACT | -0.0265
198 | CGGGTATA | 0.16
199 | TATACCCA | -0.00416
200 | ATGCGTAA | 0.131

Row | Sequence | PBM E-score
201 | CCCTTGCG | -0.273
202 | AGTGTATC | 0.0671
203 | CGCAAGTC | -0.0333
204 | AGTCCCCG | -0.0418
205 | AATTGATC | 0.085
206 | AGTGAGAT | -0.00562
207 | CCGCTGGC | -0.172
208 | GAAACACC | 0.108
209 | CATAAGGG | -0.134
210 | AGCCTATA | -0.0899
211 | GCCCACTA | -0.274
212 | AACAACCA | -0.0609
213 | GGTATGGA | -0.15
214 | CTCCATCC | -0.224
215 | ACGCGTAG | 0.115
216 | CATCACGG | -0.0135
217 | GGATCTAC | -0.0807
218 | ATACAAGA | -0.0503
219 | CGATGTAA | 0.211
